Laboratory results: the supplement of paper PMC8728848
The list shows a part of the results.

How the values were obtained:
Experiment in all cases: glycan array binding signal (z-score within array); higher = stronger binding
Details in all cases: glycan notation: IUPAC condensed, linker removed
[1] = molecular target: Neu5Ac(a2-3)Gal(b1-4)GlcNAc(b1-3)[Neu5Ac(a2-3)Gal(b1-4)GlcNAc(b1-6)]GalNAc
Outline: (§1)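 Glycan array data came from 3228 arrays in the Consortium for Functional Glycomics database, and only arrays with an available protein sequence were kept. Glycan names were put into IUPAC-condensed notation, and columns mapping to the same glycan were averaged. The binding signal is a within-array Z-score, averaged across arrays of one protein sequence run at different concentrations or buffers and across linkers. A negative Z-score can be read as non-binding.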

[2] = molecular target: Neu5Ac(a2-3)Gal(b1-4)GlcNAc(b1-6)GalNAc
Outline: as §1

[3] = molecular target: Neu5Ac(a2-3)Gal(b1-4)GlcNAc(b1-6)[Gal(b1-3)]GalNAc
Outline: as §1

[4] = molecular target: Neu5Ac(a2-3)Gal(b1-4)GlcNAc(b1-6)[Neu5Ac(a2-3)Gal(b1-3)]GalNAc
Outline: as §1

[5] = molecular target: Neu5Ac(a2-3)Gal(b1-4)GlcNAc6S
Outline: as §1

[6] = molecular target: Neu5Ac(a2-3)Gal(b1-4)[Fuc(a1-3)]GlcNAc
Outline: as §1

[7] = molecular target: Neu5Ac(a2-3)Gal(b1-4)[Fuc(a1-3)]GlcNAc(b1-2)Man
Outline: as §1

[8] = molecular target: Neu5Ac(a2-3)Gal(b1-4)[Fuc(a1-3)]GlcNAc(b1-3)Gal
Outline: as §1

[9] = molecular target: Neu5Ac(a2-3)Gal(b1-4)[Fuc(a1-3)]GlcNAc(b1-3)Gal(b1-4)GlcNAc
Outline: as §1

[10] = molecular target: Neu5Ac(a2-3)Gal(b1-4)[Fuc(a1-3)]GlcNAc(b1-3)Gal(b1-4)[Fuc(a1-3)]GlcNAc(b1-3)Gal(b1-4)[Fuc(a1-3)]GlcNAc
Outline: as §1

[11] = molecular target: Neu5Ac(a2-3)Gal(b1-4)[Fuc(a1-3)]GlcNAc(b1-3)GalNAc
Outline: as §1

[12] = molecular target: Neu5Ac(a2-3)Gal(b1-4)[Fuc(a1-3)]GlcNAc(b1-6)[Gal(b1-3)]GalNAc
Outline: as §1

[13] = molecular target: Neu5Ac(a2-3)Gal(b1-4)[Fuc(a1-3)]GlcNAc(b1-6)[Neu5Ac(a2-3)Gal(b1-3)]GalNAc
Outline: as §1

[14] = molecular target: Neu5Ac(a2-3)Gal(b1-4)[Fuc(a1-3)]GlcNAc6S
Outline: as §1

[15] = molecular target: Neu5Ac(a2-3)Gal6S(b1-4)GlcNAc
Outline: as §1

[16] = molecular target: Neu5Ac(a2-3)Gal6S(b1-4)[Fuc(a1-3)]GlcNAc
Outline: as §1

[17] = molecular target: Neu5Ac(a2-3)GalNAc
Outline: as §1

[18] = molecular target: Neu5Ac(a2-3)GalNAc(b1-4)GlcNAc
Outline: as §1

[19] = molecular target: Neu5Ac(a2-3)[GalNAc(b1-4)]Gal(b1-4)Glc
Outline: as §1

[20] = molecular target: Neu5Ac(a2-3)[GalNAc(b1-4)]Gal(b1-4)GlcNAc
Outline: as §1

[21] = molecular target: Neu5Ac(a2-3)[GalNAc(b1-4)]Gal(b1-4)GlcNAc(b1-3)GalNAc
Outline: as §1

[22] = molecular target: Neu5Ac(a2-3)[Neu5Ac(a2-6)]GalNAc
Outline: as §1

[23] = molecular target: Neu5Ac(a2-6)Gal
Outline: as §1

[24] = molecular target: Neu5Ac(a2-6)Gal(b1-3)GlcNAc(b1-3)[Gal(b1-4)GlcNAc(b1-6)]Gal(b1-4)Glc
Outline: as §1

[25] = molecular target: Neu5Ac(a2-6)Gal(b1-4)Glc
Outline: as §1

[26] = molecular target: Neu5Ac(a2-6)Gal(b1-4)GlcNAc
Outline: as §1

[27] = molecular target: Neu5Ac(a2-6)Gal(b1-4)GlcNAc(b1-2)Man
Outline: as §1

[28] = molecular target: Neu5Ac(a2-6)Gal(b1-4)GlcNAc(b1-2)Man(a1-3)Man(b1-4)GlcNAc(b1-4)GlcNAc
Outline: as §1

[29] = molecular target: Neu5Ac(a2-6)Gal(b1-4)GlcNAc(b1-2)Man(a1-3)[Gal(b1-4)GlcNAc(b1-2)Man(a1-6)]Man(b1-4)GlcNAc(b1-4)GlcNAc
Outline: as §1

[30] = molecular target: Neu5Ac(a2-6)Gal(b1-4)GlcNAc(b1-2)Man(a1-3)[GlcNAc(b1-2)Man(a1-6)]Man(b1-4)GlcNAc(b1-4)GlcNAc
Outline: as §1

[31] = molecular target: Neu5Ac(a2-6)Gal(b1-4)GlcNAc(b1-2)Man(a1-3)[GlcNAc(b1-4)][Neu5Ac(a2-6)Gal(b1-4)GlcNAc(b1-2)Man(a1-6)]Man(b1-4)GlcNAc(b1-4)GlcNAc
Outline: as §1

[32] = molecular target: Neu5Ac(a2-6)Gal(b1-4)GlcNAc(b1-2)Man(a1-3)[Man(a1-6)]Man(b1-4)GlcNAc(b1-4)GlcNAc
Outline: as §1

[33] = molecular target: Neu5Ac(a2-6)Gal(b1-4)GlcNAc(b1-2)Man(a1-3)[Neu5Ac(a2-3)Gal(b1-4)GlcNAc(b1-2)Man(a1-6)]Man(b1-4)GlcNAc(b1-4)GlcNAc
Outline: as §1

[34] = molecular target: Neu5Ac(a2-6)Gal(b1-4)GlcNAc(b1-2)Man(a1-3)[Neu5Ac(a2-6)Gal(b1-4)GlcNAc(b1-2)Man(a1-6)]Man(b1-4)GlcNAc(b1-4)GlcNAc
Outline: as §1

[35] = molecular target: Neu5Ac(a2-6)Gal(b1-4)GlcNAc(b1-2)Man(a1-3)[Neu5Ac(a2-6)Gal(b1-4)GlcNAc(b1-2)Man(a1-6)]Man(b1-4)GlcNAc(b1-4)[Fuc(a1-6)]GlcNAc
Outline: as §1

[36] = molecular target: Neu5Ac(a2-6)Gal(b1-4)GlcNAc(b1-2)Man(a1-6)Man(b1-4)GlcNAc(b1-4)GlcNAc
Outline: as §1

[37] = molecular target: Neu5Ac(a2-6)Gal(b1-4)GlcNAc(b1-2)Man(a1-6)[Gal(b1-4)GlcNAc(b1-2)Man(a1-3)]Man(b1-4)GlcNAc(b1-4)GlcNAc
Outline: as §1

[38] = molecular target: Neu5Ac(a2-6)Gal(b1-4)GlcNAc(b1-2)Man(a1-6)[GlcNAc(b1-2)Man(a1-3)]Man(b1-4)GlcNAc(b1-4)GlcNAc
Outline: as §1

[39] = molecular target: Neu5Ac(a2-6)Gal(b1-4)GlcNAc(b1-2)Man(a1-6)[Man(a1-3)]Man(b1-4)GlcNAc(b1-4)GlcNAc
Outline: as §1

[40] = molecular target: Neu5Ac(a2-6)Gal(b1-4)GlcNAc(b1-2)[Neu5Ac(a2-6)Gal(b1-4)GlcNAc(b1-4)]Man(a1-3)[GlcNAc(b1-4)][Neu5Ac(a2-6)Gal(b1-4)GlcNAc(b1-2)[Neu5Ac(a2-6)Gal(b1-4)GlcNAc(b1-6)]Man(a1-6)]Man(b1-4)GlcNAc(b1-4)GlcNAc
Outline: as §1

[41] = molecular target: Neu5Ac(a2-6)Gal(b1-4)GlcNAc(b1-2)[Neu5Ac(a2-6)Gal(b1-4)GlcNAc(b1-4)]Man(a1-3)[GlcNAc(b1-4)][Neu5Ac(a2-6)Gal(b1-4)GlcNAc(b1-4)Man(a1-6)]Man(b1-4)GlcNAc(b1-4)GlcNAc
Outline: as §1

[42] = molecular target: Neu5Ac(a2-6)Gal(b1-4)GlcNAc(b1-2)[Neu5Ac(a2-6)Gal(b1-4)GlcNAc(b1-6)]Man(a1-6)[Neu5Ac(a2-6)Gal(b1-4)GlcNAc(b1-2)Man(a1-3)][GlcNAc(b1-4)]Man(b1-4)GlcNAc(b1-4)GlcNAc
Outline: as §1

[43] = molecular target: Neu5Ac(a2-6)Gal(b1-4)GlcNAc(b1-3)Gal(b1-3)GlcNAc
Outline: as §1

[44] = molecular target: Neu5Ac(a2-6)Gal(b1-4)GlcNAc(b1-3)Gal(b1-4)GlcNAc
Outline: as §1

[45] = molecular target: Neu5Ac(a2-6)Gal(b1-4)GlcNAc(b1-3)Gal(b1-4)GlcNAc(b1-2)Man(a1-3)[Neu5Ac(a2-6)Gal(b1-4)GlcNAc(b1-3)Gal(b1-4)GlcNAc(b1-2)Man(a1-6)]GalNAc
Outline: as §1

B1: HML-Native (Hypnea musciformis), P84871 (protein)
chain: QKFCTLDIAPVCCQIVIGGGMYTAGNACMCEGFVSGVGRCENPKECPCTREAQIPSCCSSRWGLVSVTGKCACDCLGGTVAFPEPCPSPY
[1]
  glycan array binding signal (z-score): -0.187
[2]
  glycan array binding signal (z-score): -0.316
[3]
  glycan array binding signal (z-score): -0.228
[4]
  glycan array binding signal (z-score): -0.37
[5]
  glycan array binding signal (z-score): -0.349
[6]
  glycan array binding signal (z-score): -0.244
[7]
  glycan array binding signal (z-score): -0.391
[8]
  glycan array binding signal (z-score): -0.222
[9]
  glycan array binding signal (z-score): -0.096
[10]
  glycan array binding signal (z-score): -0.017
[11]
  glycan array binding signal (z-score): -0.121
[12]
  glycan array binding signal (z-score): -0.226
[13]
  glycan array binding signal (z-score): -0.013
[14]
  glycan array binding signal (z-score): -0.271
[15]
  glycan array binding signal (z-score): -0.309
[16]
  glycan array binding signal (z-score): -0.342
[17]
  glycan array binding signal (z-score): -0.258
[18]
  glycan array binding signal (z-score): -0.276
[19]
  glycan array binding signal (z-score): -0.268
[20]
  glycan array binding signal (z-score): -0.293
[21]
  glycan array binding signal (z-score): -0.115
[22]
  glycan array binding signal (z-score): -0.23
[23]
  glycan array binding signal (z-score): -0.308
[24]
  glycan array binding signal (z-score): -0.317
[25]
  glycan array binding signal (z-score): -0.255
[26]
  glycan array binding signal (z-score): -0.245
[27]
  glycan array binding signal (z-score): -0.251
[28]
  glycan array binding signal (z-score): -0.157
[29]
  glycan array binding signal (z-score): -0.255
[30]
  glycan array binding signal (z-score): -0.124
[31]
  glycan array binding signal (z-score): -0.244
[32]
  glycan array binding signal (z-score): -0.166
[33]
  glycan array binding signal (z-score): -0.139
[34]
  glycan array binding signal (z-score): -0.15
[35]
  glycan array binding signal (z-score): 5.65
[36]
  glycan array binding signal (z-score): -0.291
[37]
  glycan array binding signal (z-score): -0.223
[38]
  glycan array binding signal (z-score): -0.302
[39]
  glycan array binding signal (z-score): -0.314
[40]
  glycan array binding signal (z-score): -0.321
[41]
  glycan array binding signal (z-score): -0.353
[42]
  glycan array binding signal (z-score): -0.283
[43]
  glycan array binding signal (z-score): -0.237
[44]
  glycan array binding signal (z-score): -0.307
[45]
  glycan array binding signal (z-score): -0.17
